According to the supplement of paper PMC12889115:
Some of the results follow. Cut-off read from the data, not from the text of the source: active = 25% or less and inactive = the rest. Many values rest on one well or one pass, so single values are uncertain.

Key:
[1] = system: Salmonella enterica serovar Typhimurium SL1344; experiment: bacterial growth OD600 after 18 h in MHB with 0.5 µg/mL polymyxin B; higher = more bacterial growth (less inhibition); conditions: 25 µM; polymyxin B 0.5 µg/mL; system: broth
Description: (§1)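 Secondary screen of the 553 primary hits at 25 µM. (i) S. Typhimurium SL1344 grown in Mueller-Hinton broth with 0.5 µg/mL polymyxin B, OD600 read after 18 h. (ii) SAFIRE assay: RAW 264.7 macrophages infected with S. Typhimurium sifB::gfp (MOI 30); compound added 2 h post-infection; cells fixed at 18 h; GFP-positive pixel fraction per macrophage imaged by confocal microscopy and expressed as % of DMSO control.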

[2] = system: Salmonella enterica serovar Typhimurium SL1344; experiment: intramacrophage bacterial GFP load (SAFIRE), percent of DMSO control (% of DMSO); higher = more intracellular bacteria (less inhibition); conditions: 25 µM; system: infected RAW 264.7 macrophages
Description: as §1
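Throughout, for bacterial growth OD600 after 18 h in MHB with 0.5 µg/mL polymyxin B: polymyxin B level opens the outer membrane while sparing the inner membrane, with novobiocin wells as reference growth inhibitor.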
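Throughout, for intramacrophage bacterial GFP load (SAFIRE), percent of DMSO control: compounds tested were the hits of an earlier 50 µM broth growth screen of a drug-like diversity library run with polymyxin B.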

**Q.** How did the “bacterial growth OD600” value [1] turn out when `CCOc1ccc2nc(N3CCC(C(=O)N4CCN(C5CCCCC5)CC4)CC3)nc(C)c2c1` was run?
**A.** Its value is 0.592.

**Q.** What about the “intramacrophage bacterial GFP load” value [2] of the same compound?
**A.** Its value is active: 21.6.

**Q.** What does the source list for `O=C(COc1ccccc1Cl)N1CCCC(Nc2ccc3c(c2)OCCO3)C1` (stereo not drawn)?
**A.** bacterial growth OD600 [1]: 0.433; intramacrophage bacterial GFP load [2]: inactive: 102

**Q.** `CN1Cc2ccccc2CC1C(=O)N(Cc1ccncc1)Cc1cccc(OCCc2ccc(F)cc2)c1` (stereo not drawn) was tested. Which “bacterial growth OD600” value [1] did it give?
**A.** Its value is -0.005.

**Q.** What about the “intramacrophage bacterial GFP load” value [2] of the same compound?
**A.** The value was active: 21.7.

**Q.** `O=C(c1cn(CC2COc3ccccc3O2)nn1)N1CCC2(C=Cc3ccccc32)CC1` (stereo not drawn) was tested. Which “bacterial growth OD600” value [1] did it give?
**A.** Its value is -0.003.

**Q.** What about the “intramacrophage bacterial GFP load” value [2] of the same compound?
**A.** Its value is inactive: 105.

**Q.** With `COCCCNc1nc2nonc2nc1NCc1ccc(Cl)s1` as the compound, how does the “bacterial growth OD600” value [1] read?
**A.** The value was 0.002.

**Q.** And the “intramacrophage bacterial GFP load” value [2]?
**A.** The value was inactive: 150.

**Q.** With `CCOC(=O)C1(Cc2cccc(Cl)c2)CCCN(C(=O)c2ccc(C(C)=O)s2)C1` (stereo not drawn) as the compound, how does the “bacterial growth OD600” value [1] read?
**A.** Its value is -0.019.

**Q.** What about the “intramacrophage bacterial GFP load” value [2] of the same compound?
**A.** Its value is inactive: 65.2.

**Q.** What does the source list for `Cc1cccc2nc(CN(C)c3nncc(-c4ccc(Cl)cc4)n3)[nH]c12`?
**A.** bacterial growth OD600 [1]: 0; intramacrophage bacterial GFP load [2]: inactive: 122

**Q.** With `Cc1ccccc1-c1noc(-c2ccc(N[C@H]3CC[C@H](O)CC3)nc2)n1` as the compound, how does the “bacterial growth OD600” value [1] read?
**A.** The value was 0.42.

**Q.** What about the “intramacrophage bacterial GFP load” value [2] of the same compound?
**A.** The value was inactive: 173.

**Q.** For `O=C(c1ccc(N2CCOCC2)cc1)N(Cc1ccncc1)Cc1cccc(OCCc2ccc(F)cc2)c1`, which “bacterial growth OD600” value [1] is on record?
**A.** The value was -0.008.

**Q.** What about the “intramacrophage bacterial GFP load” value [2] of the same compound?
**A.** The value was inactive: 71.7.

**Q.** Which “bacterial growth OD600” value [1] does the source give for `Cc1c(CN2CCOc3ccc(C4=CCCCC4)cc3C2)c(=O)n(-c2ccccc2)n1C` here?
**A.** Its value is 0.008.

**Q.** What about the “intramacrophage bacterial GFP load” value [2] of the same compound?
**A.** The value was active: 3.19.

**Q.** Which results are given for `O=C(c1csc(-c2cccs2)n1)N1CCCC(CO)(Cc2cccc(Cl)c2)C1` (stereo not drawn)?
**A.** bacterial growth OD600 [1]: -0.005; intramacrophage bacterial GFP load [2]: inactive: 109

**Q.** What does the source list for `O=C(CCCc1cccs1)N1CCOc2ccc(C(O)C(c3ccccc3)c3ccccc3)cc2C1` (stereo not drawn)?
**A.** bacterial growth OD600 [1]: 0.008; intramacrophage bacterial GFP load [2]: inactive: 60.7

**Q.** How did the “bacterial growth OD600” value [1] turn out when `COc1ccc(C(=O)N2CCCC(C(=O)c3ccc(Cl)cc3C)C2)cc1` (stereo not drawn) was run?
**A.** Its value is -0.029.

**Q.** What about the “intramacrophage bacterial GFP load” value [2] of the same compound?
**A.** The value was inactive: 64.5.

**Q.** How did the “bacterial growth OD600” value [1] turn out when `O=C(c1ccc(=O)[nH]n1)N1CCc2onc(-c3cccc4ccccc34)c2C1` was run?
**A.** Its value is 0.176.

**Q.** What about the “intramacrophage bacterial GFP load” value [2] of the same compound?
**A.** Its value is inactive: 131.
